# Measurements from ChEMBL document CHEMBL4888484, “Replenishing the malaria drug discovery pipeline: Screening and hit evaluation of the MMV Hit Generation Library 1 (HGL1) against asexual blood stage Plasmodium falciparum ,using a nano luciferase reporter read-out” (2022).
# Among all 150,000 compounds or so, about 540 (0.36%) showed an effect of 50% or more. Some of the results follow.
# Tested on: Plasmodium falciparum
# Test: Primary screen in NF54 nanoGlo assay, in single point, at 2uM, 72h; a lower Z score goes with more inhibition
# Format: functional, Erythrocyte
# Details: timepoint 72 hour
SMILES,% Inhibition [%],Z score
Cn1c(=O)sc2cc(NC(=O)c3ccc(Br)cc3)ccc21,4,-0.48
Nc1nc(N[C@H]2C[C@@H]2c2ccccc2)c2cc(C(=O)O)ccc2n1,-3,0.54
COCC1(C(=O)Nc2cnc(C(C)C)nc2)CCC1,-10,1.55
Cc1ccc(-c2nc(CN(C)Cc3nnc(C)o3)c(C)o2)o1,-9,1.7
CS(=O)(=O)N1CCN(C(=O)COC(=O)c2ccc(-c3ccccc3)cc2)CC1,-4,0.75
CCc1cc(C(=O)N(Cc2ccc(C)s2)C(C)C)n(C)n1,-6,0.7
O=C(NC1CC1)c1cccc(-n2ccc3ccccc32)c1,-1,0.23
Fc1ccc(-c2nc(-c3c[nH]c4ccc(Br)cc34)[nH]c2-c2ccccc2)cc1,-16,1.76
Cn1nnc2c(=O)n(CC(=O)Nc3ccc(F)c(Cl)c3)cnc21,-4,0.6
Cc1cncc(NC(=O)C(=O)N(CC(C)C)CC(C)(C)C)c1,-1,0.25
Cc1cc(CN2CCCN(C(=O)Nc3cccc4c3CCCC4)CC2)no1,0,-0.02
O=C1CCCC(=O)C12Cc1ccc(Cl)cc1N1CCCCC[C@H]12,7,-1.31
CC(=O)NC1CCN(Cc2cnc(C3CCCC3)s2)CC1,-11,1.13
Cc1ccccc1C(=O)Nn1ccc2c(cnc3c(-c4ccc(F)cc4)cnn32)c1=O,6,-0.79
O=C(NC1CCC(c2ccc(F)cc2)C1)C1=COCCO1 (stereo unspecified),-13,1.8
CCOc1cccc(CN(CCO)Cc2ccc(CN(C)S(C)(=O)=O)o2)c1,-10,1.92
Cc1ccc(S(=O)(=O)N2C[C@@H]3CC[C@H]2CN(C(=O)N(C)C)C3)s1,-5,0.75
Cc1nnc(CNC2CC(OC(C)C)C2(C)C)s1 (stereo unspecified),-2,0.24
CCn1nccc1CN(C)C(=O)c1cc(C)c(C)s1,35,-0.61
CC[C@@H](C(=O)NCc1ccc2c(c1)CCN2C(=O)c1ccccc1)N1C(=O)COc2ccccc21,-4,0.67
NC(=O)NC1CCN(C(=O)[C@]2(c3ccccc3)CCCO2)CC1,0,0.02
CC[C@@H]1CCO[C@@H]1C(=O)NS(=O)(=O)c1cc(Cl)cc(Br)c1,-3,0.45

SMILES,% Inhibition [%],Z score
CN1C(=O)NC2(CCN(CC(=O)Nc3ccc4c(c3)OCO4)CC2)C1=O,-2,0.42
O=C1CCCc2nc(N3CCOCC3)ncc21,3,-0.38
CC(C)[C@H]1CN(S(=O)(=O)N(C)Cc2ccccc2)C[C@@H]1N(C)C,-8,1.1
C[C@]1(O)CCN(Cc2ccccc2-c2ccco2)C[C@@H]1O,-21,1.97
COC[C@@]12CN(C(C)=O)CC[C@@H]1CN(C(=O)c1ccc(C)s1)C2,-17,1.96
CC(C)CN1C(=O)N(Cc2ccccc2)C2(CCNCC2)C1=O,5,-0.69
CCCNC(=O)c1cc(-c2ccc(Cl)cc2)cn1C,14,-2.24
CC1CN(C(C(=O)N2CCC(C(C)NC(=O)OC(C)(C)C)C2)C(C)C)CC(C)O1 (stereo unspecified),12,-1.41
COC[C@H](NC(=O)Nc1cnn(-c2ccccn2)c1)c1ccco1,4,-0.45
CCOC(=O)N1CCC(NCc2cc(Br)c3c(c2)OCO3)CC1,-18,2.27
NC(=O)c1nc(CNC(=O)C[C@@H](c2ccccc2)c2ccccc2F)no1,-9,1.56
NC(=O)CN1C(=O)[C@]2(CC(=O)Nc3c2cnn3-c2ccccc2)c2ccccc21,-2,0.22
CCCc1nc(CN2CCOc3ccccc3[C@@H]2C(=O)O)no1,6,-1.09
C#Cc1cccc(NC(=O)N(CCOC)Cc2ccc(C)o2)c1,5,-0.67
CC1CCCC(OC(C)C(=O)NC(C)C(=O)Cc2ccccc2)C1 (stereo unspecified),2,-0.3
CC(Cn1cncn1)NC(=O)N1CCC[C@H]1C(F)F (stereo partly specified),1,-0.12
CC(c1nc(C2CC2)no1)N1CCCC1Cn1cncn1 (stereo unspecified),1,-0.27
O=S(=O)(NCC1(Cn2ccnc2)CC1)c1cccnc1,4,-0.75
COc1cccnc1N1CC[C@H](O)[C@@H](C2CCCC2)C1,-5,0.98
CS(=O)(=O)NC[C@H](O)c1ccc(-c2ccco2)cc1,2,-0.28
C=CCNC(=O)N1Cc2cccc(F)c2C1,-14,1.37
